Consider 9 variants from the supplement of paper PMC12217912.

B1: TEV protease; numbered along this chain (parent)
chain: MGESLFKGPRDYNPISSSICHLTNESDGHTTSLYGIGFGPFIITNKHLFRRNNGTLVVQSLHGVFKVKDTTTLQQHLVDGRDMIIIRMPKDFPPFPQKLKFREPQREERICLVTTNFQTKSMSSMVSDTSCTFPSGDGIFWKHWIQTKDGQCGSPLVSTRDGFIVGIHSASNFTNTNNYFTSVPKNFMELLTNQEAQQWVSGWRLNADSVLWGGHKVFMVKPEEPFQPVKEATQL

The list shows a part of the results. The full chains were built here from the parent and the listed change. Inactive controls read about 0.05.

In this experiment the parent is B1. Nature of the experiment: raw area under fraction-flipped curve 0-4 h after induction (AUC4h, not background-subtracted), DNA-recorder readout of cleavage of the substrate (dimensionless); higher = more cleavage of the substrate by the protease variant. Particulars: temperature: 34 °C; time window: 0-4 h after rhamnose induction. The method, then:
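In vivo DNA recorder in E. coli TOP10(DE3) ΔrhaA at 34 °C. Each TEVp single-site mutant (parent TEVp 0) is paired with a single-site variant of the 7-mer TEVs (canonical ENLYFQ|S). The substrate sits between flexible linkers in a Bxb1-sfGFP-TEVs-SsrA fusion, so cleavage stabilises Bxb1 and speeds flipping of a recombination array, read by NGS. The value is the raw area under the fraction-flipped curve over 0-4 h after rhamnose induction (AUC4h), with ≥20 reads per time point. It is not background-subtracted; inactive controls average about 0.047.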
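Note: Bxb1 expression induced with 0.2% (w/v) L-rhamnose at OD600 near 0.5, cultures sampled hourly, flipped fraction per protease–substrate barcode pair counted by paired-end Illumina sequencing.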

MGESLFKGPRDYNPISSSICHLTNESDGHTTSLYGIGFGPFIITNKHLFRRNNGTLVVQSLHGVFKVKDTTTLQQHLVDGRDMIIIRMPKDFPPFPQKLKFREPQREERICLVTTNFQTKSMSSMVSDTSCTFPSGDGIFWKHWIQTKDGQCGSPLVSTRDGFIVGIHSASNFTNTNNYFTSVPKNFMELLTNQEAQQPVSGWRLNADSVLWGGHKVFMVKPEEPFQPVKEATQL [W199P]: the “area with substrate ENLYFAS” value came out at 0.0543, the “area with substrate ENLYFCS” value stood at 0.0598, the “area with substrate ENLYFES” value was 0.0619 and the “area with substrate ENLYFFS” value was determined as 0.0714. The “area with substrate ENLYFHS” value is 0.054, the “area with substrate ENLYFIS” value turned out to be 0.0582, the “area with substrate ENLYFKS” value is 0.0555 and the “area with substrate ENLYFLS” value came out at 0.0602. Also, the “area with substrate ENLYFMS” value was 0.061, the “area with substrate ENLYFPS” value came out at 0.0289, the “area with substrate ENLYFRS” value was 0.0645 and the “area with substrate ENLYFSS” value turned out to be 0.0657. The “area with substrate ENLYFTS” value was 0.0592 and the “area with substrate ENLYFWS” value was 0.0658.
For the variant MGESLFKGPRDYNPISSSICHLTNESDGHTTSLYGIGFGPFIITNKHLFRRNNGTLVVQSLHGVFKVKDTTTLQQHLVDGRDMIIIRMPKDFPPFPQKLKFREPQREERICLVTTNFQTKSMSSMVSDTSCTFPSGDGIFWKHWIQTKDGQCGSPLVSTRDGFIVGIHSASNFTNTNNYFTSVPKNFMELLTNQEAQQFVSGWRLNADSVLWGGHKVFMVKPEEPFQPVKEATQL [W199F], the “area with substrate ENLYFAS” value came to 0.0469, the “area with substrate ENLYFCS” value turned out to be 0.0327, the “area with substrate ENLYFDS” value worked out at 0.0541 and the “area with substrate ENLYFES” value was determined as 0.0531. In addition, the “area with substrate ENLYFFS” value worked out at 0.0567, the “area with substrate ENLYFGS” value was 0.0493, the “area with substrate ENLYFIS” value was found to be 0.063 and the “area with substrate ENLYFKS” value is 0.0734. In addition, the “area with substrate ENLYFLS” value was 0.0645, the “area with substrate ENLYFMS” value amounted to 0.057, the “area with substrate ENLYFNS” value worked out at 0.072 and the “area with substrate ENLYFPS” value was 0.0641. Further, the “area with substrate ENLYFRS” value is 0.0546, the “area with substrate ENLYFSS” value is 0.0778, the “area with substrate ENLYFTS” value stood at 0.0612 and the “area with substrate ENLYFVS” value worked out at 0.0649. Besides, the “area with substrate ENLYFWS” value stood at 0.0519.
MGESLFKGPRDYNPISSSICHLTNESDGHTTSLYGIGFGPFIITNKHLFRRNNGTLVVQSLHGVFKVKDTTTLQQHLVDGRDMIIIRMPKDFPPFPQKLKFREPQREERICLVTTNFQTKSMSSMVSDTSCTFPSGDGIFWKHWIQTKDGQCGSPLVSTRDGFIVGIHSASNFTNTNNYFTSVPKNFMELLTNQEAQLWVSGWRLNADSVLWGGHKVFMVKPEEPFQPVKEATQL [Q198L]: the “area with substrate ENLYFAS” value came to 0.0577, the “area with substrate ENLYFCS” value turned out to be 0.0532, the “area with substrate ENLYFDS” value turned out to be 0.0613 and the “area with substrate ENLYFES” value came to 0.0607. The “area with substrate ENLYFFS” value was found to be 0.0571, the “area with substrate ENLYFGS” value was 0.0729, the “area with substrate ENLYFIS” value came to 0.0463 and the “area with substrate ENLYFKS” value is 0.0667. The “area with substrate ENLYFMS” value was found to be 0.0667, the “area with substrate ENLYFNS” value came out at 0.0676, the “area with substrate ENLYFPS” value worked out at 0.0486 and the “area with substrate ENLYFSS” value turned out to be 0.0474. Also, the “area with substrate ENLYFTS” value worked out at 0.0359 and the “area with substrate ENLYFVS” value turned out to be 0.0719.
Consider MGESLFKGPRDYNPISSSICHLTNESDGHTTSLYGIGFGPFIITNKHLFRRNNGTLVVQSLHGVFKVKDTTTLQQHLVDGRDMIIIRMPKDFPPFPQKLKFREPQREERICLVTTNFQTKSMSSMVSDTSCTFPSGDGIFWKHWIQTKDGQCGSPLVSTRDGFIVGIHSASNFTNTNNYFTSVPKNFMELLTNQEAQAWVSGWRLNADSVLWGGHKVFMVKPEEPFQPVKEATQL [Q198A], for which the “area with substrate ENLYFAS” value was 0.0628, the “area with substrate ENLYFCS” value was determined as 0.0766, the “area with substrate ENLYFES” value was determined as 0.0545 and the “area with substrate ENLYFHS” value was 0.0516. Besides, the “area with substrate ENLYFIS” value turned out to be 0.0601, the “area with substrate ENLYFKS” value amounted to 0.0387, the “area with substrate ENLYFLS” value worked out at 0.059 and the “area with substrate ENLYFMS” value came to 0.0597. For the same variant, the “area with substrate ENLYFNS” value amounted to 0.0773, the “area with substrate ENLYFPS” value amounted to 0.0605, the “area with substrate ENLYFWS” value was determined as 0.0533 and the “area with substrate ENLYFYS” value stood at 0.0573.
Take MGESLFKGPRDYNPISSSICHLTNESDGHTTSLYGIGFGPFIITNKHLFRRNNGTLVVQSLHGVFKVKDTTTLQQHLVDGRDMIIIRMPKDFPPFPQKLKFREPQREERICLVTTNFQTKSMSSMVSDTSCTFPSGDGIFWKHWIQTKDGQCGSPLVSTRDGFIVGIHSASNFTNTNNYFTSVPKNFMELLTNNEAQQWVSGWRLNADSVLWGGHKVFMVKPEEPFQPVKEATQL [Q194N]: the “area with substrate ENLYFAS” value came out at 0.0561, the “area with substrate ENLYFDS” value was determined as 0.0472, the “area with substrate ENLYFHS” value is 0.0671 and the “area with substrate ENLYFIS” value amounted to 0.054. Besides, the “area with substrate ENLYFKS” value was determined as 0.0572, the “area with substrate ENLYFMS” value was 0.0671, the “area with substrate ENLYFNS” value was determined as 0.0378 and the “area with substrate ENLYFPS” value amounted to 0.0548. Further, the “area with substrate ENLYFTS” value worked out at 0.0581 and the “area with substrate ENLYFYS” value was found to be 0.0489.
Turning to MGESLFKGPRDYNPISSSICHLTNESDGHTTSLYGIGFGPFIITNKHLFRRNNGTLVVQSLHGVFKVKDTTTLQQHLVDGRDMIIIRMPKDFPPFPQKLKFREPQREERICLVTTNFQTKSMSSMVSDTSCTFPSGDGIFWKHWIQTKDGQCGSPLVSTRDGFIVGIHSASNFTNTNNYFTSVPKNFSELLTNQEAQQWVSGWRLNADSVLWGGHKVFMVKPEEPFQPVKEATQL [M188S], the “area with substrate ENLYFAS” value came out at 0.0566, the “area with substrate ENLYFCS” value is 0.0736, the “area with substrate ENLYFDS” value came to 0.0557 and the “area with substrate ENLYFES” value is 0.0588. The “area with substrate ENLYFFS” value came to 0.0629, the “area with substrate ENLYFIS” value was 0.0652, the “area with substrate ENLYFLS” value stood at 0.0613 and the “area with substrate ENLYFNS” value came to 0.0687. Besides, the “area with substrate ENLYFPS” value was 0.0664, the “area with substrate ENLYFSS” value was determined as 0.0697, the “area with substrate ENLYFTS” value amounted to 0.0473 and the “area with substrate ENLYFWS” value was determined as 0.0538.
As to MGESLFKGPRDYNPISSSICHLTNESDGHTTSLYGIGFGPFIITNKHLFRRNNGTLVVQSLHGVFKVKDTTTLQQHLVDGRDMIIIRMPKDFPPFPQKLKFREPQREERICLVTTNFQTKSMSSMVSDTSCTFPSGDGIFWKHWIQTKDGQCGSPLVSTRDGFIVGIHSASNFTNTNNYFTSVPKNFMTLLTNQEAQQWVSGWRLNADSVLWGGHKVFMVKPEEPFQPVKEATQL [E189T], the “area with substrate ENLYFAS” value stood at 0.0486, the “area with substrate ENLYFCS” value was 0.0427, the “area with substrate ENLYFES” value amounted to 0.0653 and the “area with substrate ENLYFFS” value was 0.0489. Further, the “area with substrate ENLYFGS” value is 0.0557, the “area with substrate ENLYFHS” value was 0.0832, the “area with substrate ENLYFIS” value stood at 0.0609 and the “area with substrate ENLYFMS” value is 0.0384. Besides, the “area with substrate ENLYFPS” value was 0.0603, the “area with substrate ENLYFRS” value stood at 0.0575, the “area with substrate ENLYFTS” value stood at 0.0669 and the “area with substrate ENLYFVS” value came out at 0.0548.
For the variant MGESLFKGPRDYNPISSSICHLTNESDGHTTSLYGIGFGPFIITNKHLFRRNNGTLVVQSLHGVFKVKDTTTLQQHLVDGRDMIIIRMPKDFPPFPQKLKFREPQREERICLVTTNFQTKSMSSMVSDTSCTFPSGDGIFWKHWIQTKDGQCGSPLVSTRDGFIVGIHSASNFTNTNNYFTSVPKNFMNLLTNQEAQQWVSGWRLNADSVLWGGHKVFMVKPEEPFQPVKEATQL [E189N], the “area with substrate ENLYFAS” value came to 0.0522, the “area with substrate ENLYFCS” value is 0.066, the “area with substrate ENLYFDS” value is 0.129 and the “area with substrate ENLYFES” value came to 0.0599. The “area with substrate ENLYFFS” value was 0.0278, the “area with substrate ENLYFGS” value is 0.0748, the “area with substrate ENLYFIS” value is 0.0535 and the “area with substrate ENLYFKS” value was 0.0602. In addition, the “area with substrate ENLYFMS” value worked out at 0.0839, the “area with substrate ENLYFPS” value came to 0.0617, the “area with substrate ENLYFTS” value is 0.0692 and the “area with substrate ENLYFVS” value is 0.0657. In addition, the “area with substrate ENLYFWS” value was found to be 0.0515 and the “area with substrate ENLYFYS” value amounted to 0.0518.
Take MGESLFKGPRDYNPISSSICHLTNESDGHTTSLYGIGFGPFIITNKHLFRRNNGTLVVQSLHGVFKVKDTTTLQQHLVDGRDMIIIRMPKDFPPFPQKLKFREPQREERICLVTTNFQTKSMSSMVSDTSCTFPSGDGIFWKHWIQTKDGQCGSPLVSTRDGFIVGIHSASNFTNTNNYFTSVPKNFMGLLTNQEAQQWVSGWRLNADSVLWGGHKVFMVKPEEPFQPVKEATQL [E189G]: the “area with substrate ENLYFAS” value came to 0.0537, the “area with substrate ENLYFDS” value is 0.0675, the “area with substrate ENLYFES” value was found to be 0.0627 and the “area with substrate ENLYFFS” value was 0.0675. The “area with substrate ENLYFGS” value came to 0.0568, the “area with substrate ENLYFHS” value is 0.0554, the “area with substrate ENLYFIS” value came to 0.0638 and the “area with substrate ENLYFMS” value came out at 0.0689. Moreover, the “area with substrate ENLYFNS” value was 0.0645, the “area with substrate ENLYFPS” value came out at 0.0603, the “area with substrate ENLYFRS” value worked out at 0.0526 and the “area with substrate ENLYFSS” value is 0.0661. Further, the “area with substrate ENLYFTS” value worked out at 0.0618, the “area with substrate ENLYFVS” value was found to be 0.0557, the “area with substrate ENLYFWS” value was found to be 0.0519 and the “area with substrate ENLYFYS” value is 0.0613.
